Assay results: PubChem BioAssay AID1918939 (Molecular Pharmacology Branch, DTP, NCI, 2023)
A number of entries come with more than one value. This list holds those alone. The source may hold further records. Results that share an entry are repeats (runs, samples, wells, individuals or studies). Brackets with × stand for listed records that agree. A date in brackets names the month of the test.

Tested on: 653999-131-R-J2-PDC complex spheroid viability
Assay: Anticancer human tumor 653999-131-R-J2-PDC patient-derived lung adenocarcinoma cell line growth inhibition
Details: for viability, T/C: stronger effect = lower value
Excerpt: Multicellular complex tumor spheroid response to LSD1 Inhibitor Iadademstat in combination with a variety of drugs and investigational agents in selected tumor cell lines
The current study was undertaken to assess response to LSD1 inhibitors in combination with standard-of-care drugs and investigational agents in solid tumor complex spheroid models as well as in the K-562 leukemia. Complex spheroids include a stromal component modeled by human endothelial cells (HUVEC) and fibroblasts modeled by human mesenchymal stem cells (MSCs). The concentration ranges selected for each drug and investigational agent were based upon clinically achievable concentrations if the clinical Cmax of the agent was known.
Compounds. The drugs and investigational agents used in this study are listed on Table 1. All of the agents used, including staurosporine (NSC755774) and gemcitabine (NSC613327), were obtained from the Developmental Therapeutics Program, NCI. FDA-approved anticancer drugs are available from the NCI at http://dtp.nci.nih.gov/branches/dscb/oncology_drugset_explanation.html. Drugs and investigational agents were >95% pure by proton nuclear magnetic resonance (NMR) and liquid chromatography/mass spectrometry (LC/MS). Stock solutions were prepared at 400x in DMSO, stored at -70 degrees C, and diluted in fresh medium prior to their use. The final concentration of DMSO in cell culture wells never exceeded 0.25% (v/v). The FDA-approved anticancer drug set is available from the Developmental Therapeutics Program at https://dtp.cancer.gov/organization/dscb/obtaining/available_plates.htm. All drugs and investigational agents were tested over a range starting from a high concentration at or near the clinical Cmax and decreasing in half-log increments. If the clinical Cmax for an agent had not been determined, the highest concentration tested was 10 microM.
Cell Lines. The patient-derived cancer cell (PDC) lines: 292921-168-R-J2-PDC, K24384-001-R-PDC, and 521955-158-R2-J5-PDC pancreatic carcinomas, 556581-035-R-J1 ovarian carcinoma, 324938-238-R-J1-PDC, 855422-203-R-J1-PDC and 883617-216-R-J1-PDC urothelial bladder carcinomas, 743489-274-T-PDC renal cell carcinoma, 138582-R-J1 Merkel cell tumor, K60290-347-R-J1 and K57222-313-R-J1-PDC glioblastomas, 653999-131-R-J2-PDC, LG0703-F948-PDC, and 349418-098-R-PDC non-small cell lung carcinomas, 885512-296-R-J2-PDC, 171881-019-R-J1-PDC breast carcinomas and 186277-243-T-J2-PDC and 233499-124-R-J2-PDC colon carcinomas were obtained from the NCI Patient-Derived Models Repository (PDMR, https://pdmr.cancer.gov). The established cell lines NCI/ADR-RES (RRID:CVCL_14520 and OVCAR-5 (RRID:CVCL_1628) ovarian carcinomas, 786-O (RRID:CVCL_1051) and A498 (RRID:CVCL_A498) renal cell carcinoma, NCI-H211 (ATCC, cat. CRL-5824; RRID:CVCL_1529), NCI-H196 (ATCC, cat. CRL-5823, RRID:CVCL_1509), SW 1271 (ATCC, cat. CRL-2177, RRID:CVCL_1716) and NCI-H1876 (ATCC, cat. CRL-5902, RRID:CVCL_1503) small cell lung carcinomas, MDA-MB-231 (RRID:CVCL_0062) and MDA-MB-468 (RRID:CVCL_0419)breast carcinomas (10-12). Pooled donor human umbilical vein endothelial cells (HUVEC, Lonza, cat. CC-2519) and human mesenchymal stem cells (hMSC, Lonza, cat. PT-2501) were purchased from Lonza (Walkersville, MD).
Cell Culture. All cells were maintained in an incubator at 37 degrees C and 5% CO2 with 95% humidity. The PDC lines were cultured according to standard operating procedures established by the NCI PDMR (https://pdmr.cancer.gov). Briefly all PDCs were thawed and cultured in Matrigel-coated flasks prepared with a working solution of 1X Ham's F-12 nutrient mix, without supplementation (Invitrogen, Waltham, MA, cat. 11765054), 100 U/mL penicillin-streptomycin (Invitrogen, cat. 15140122), and 2.5% Matrigel (Corning Inc., Corning, NY, cat. 354248) for the first three passages. […]
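Note: spheroids exposed to agents for seven days before readout.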

**Q.** With NC1CC1c1ccc(-c2cccc(O)c2)cc1 (centres undefined) as the molecule, how does the viability, T/C (compound alone 0.316 µM) read?
**A.** 83.5, 100, 87.7, 82.5, 94.4, 82.7, 85.2, 79.4, 87, 83.9, 92.3, 76.7, 90.6, 77 (2×), 79.5, 104, 91.4, 89.4, 82.8, 81.9 (2×), 95.4, 78.6, 82.4%

**Q.** And the viability, T/C (compound alone 1 µM)?
**A.** 95.8, 88.8, 85.8, 75.3, 100, 82.8, 73.9, 88.7, 66.5, 75.6, 83.3, 88, 92.1 (2×), 86.5, 82.2, 88.5, 96.1, 88.3 (2×), 96.2, 80.7, 86, 77.3, 75%

**Q.** And the viability, T/C (compound alone 3.16 µM)?
**A.** 93.8, 93.3, 98.2, 81.6, 87, 86.6, 92.8 (2×), 86.2, 81, 79.5, 86.5, 83.3, 87.6, 71.4, 81.2, 88.6, 86.9, 105, 73.7, 72.8, 99.1, 76.6, 67, 73.2%

**Q.** What about the viability, T/C (compound alone 10 µM) of the same molecule?
**A.** 88.1, 91.9, 79.1, 87, 86.6, 88.4, 87.4, 78.7, 82.7, 77.4, 80.5, 74.8, 71, 79.3, 83.9, 78.6, 92.6, 94.6, 95.7, 81.4, 69.2, 96.9, 79.2, 74, 69%

**Q.** Which IC50 (compound alone) does the source give for Nc1ccn(C2OC(CO)C(O)C2(F)F)c(=O)n1 (centres undefined) here?
**A.** 7.27 nM [2022-01] and > 300 nM [2022-02]

**Q.** How did the viability, T/C (compound alone 3 µM) turn out when O=C(C=Cc1cccc(S(=O)(=O)Nc2ccccc2)c1)NO was run?
**A.** 2.26% [2022-01] and 95.6% [2022-02]

**Q.** Which viability, T/C (compound alone 0.1 µM) does the source give for NC1CCC(NC2CC2c2ccccc2)CC1 (centres undefined) here?
**A.** 89.5, 92.1, 86.1, 87.1, 106, 101 (2×), 91, 83.7, 88.9, 79.8, 82.7, 80.4, 92.8, 84, 85.4, 84.6 (2×), 84.2, 97.1, 90.3, 104, 81.2, 96, 90.2%

**Q.** What about the viability, T/C (compound alone 3.16 µM) of the same molecule?
**A.** 85.8, 102, 92.9, 96.3, 81.3, 106, 66.8, 90.2, 95.9, 83.9, 93, 88.3, 92.7, 86.1, 111, 81.8, 78.9, 91, 96.5, 80.6, 96.8, 71.3, 107, 104, 77.8%

**Q.** What about the viability, T/C (compound alone 10 µM) of the same molecule?
**A.** 101 (2×), 74.5, 99.4, 81.1, 109 (2×), 73.8, 82.5, 92.3, 80.7, 85.3, 75.3, 94.6, 71.8, 80.4, 95.9, 80.6, 125, 72.5, 110, 106, 83.7%
